{"source": "the supplement of paper PMC8728848", "binders": {"B1": {"name": "PEB3 Cj0289c (Campylobacter jejuni), Q9PIK7 (protein)", "chain": "MDVNLYGPGGPHTALKDIANKYSEKTGVKVNVNFGPQATWFEKAKKDADILFGASDQSALAIASDFGKDFNVSKIKPLYFREAIILTQKGNPLKIKGLKDLANKKVRIVVPEGAGKSNTSGTGVWEDMIGRTQDIKTIQNFRNNIVAFVPNSGSARKLFAQDQADAWITWIDWSKSNPDIGTAVAIEKDLVVYRTFNVIAKEGASKETQDFIAYLSSKEAKEIFKKYGWRE"}}, "test_in_all_cases": "glycan array binding signal (z-score within array); higher = stronger binding", "settings_in_all_cases": "glycan notation: IUPAC condensed, linker removed", "key": {"Gal(b1-3)GalNAc": {"molecular_target": "Gal(b1-3)GalNAc", "in_short": "(§1)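 Glycan array binding is given as a within-array Z-score, which can be read as non-binding when negative. The arrays, 3228 of them, came from the Consortium for Functional Glycomics database and were retained only where the protein sequence was available. Z-scores were averaged across arrays of the same protein sequence at different concentrations or buffers and across linkers.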"}, "[1]": {"molecular_target": "Gal(b1-3)GalNAc(b1-3)Gal(a1-4)Gal(b1-4)Glc", "in_short": "as §1"}, "[2]": {"molecular_target": "Gal(b1-3)GalNAc(b1-3)Gal(b1-4)Glc", "in_short": "as §1"}, "[3]": {"molecular_target": "Gal(b1-3)GalNAc(b1-3)Gal(b1-4)GlcNAc", "in_short": "as §1"}, "[4]": {"molecular_target": "Gal(b1-3)GalNAc(b1-4)Gal(b1-4)Glc", "in_short": "as §1"}, "[5]": {"molecular_target": "Gal(b1-3)GalNAc(b1-4)[Neu5Ac(a2-3)]Gal(b1-4)Glc", "in_short": "as §1"}, "[6]": {"molecular_target": "Gal(b1-3)GlcNAc(b1-3)Gal(b1-3)GlcNAc", "in_short": "as §1"}, "[7]": {"molecular_target": "Gal(b1-3)[Fuc(a1-4)]GlcNAc", "in_short": "as §1"}, "[8]": {"molecular_target": "Gal(b1-3)[Fuc(a1-4)]GlcNAc(b1-3)Gal(b1-3)[Fuc(a1-4)]GlcNAc", "in_short": "as §1"}, "[9]": {"molecular_target": "Gal(b1-3)[Fuc(a1-4)]GlcNAc(b1-3)Gal(b1-4)GlcNAc", "in_short": "as §1"}, "[10]": {"molecular_target": "Gal(b1-3)[Fuc(a1-4)]GlcNAc(b1-3)Gal(b1-4)[Fuc(a1-3)]GlcNAc", "in_short": "as §1"}, "[11]": {"molecular_target": "Gal(b1-3)[GlcNAc(b1-6)]GalNAc", "in_short": "as §1"}, "[12]": {"molecular_target": "Gal(b1-3)[GlcNAc(b1-6)]GlcNAc", "in_short": "as §1"}, "[13]": {"molecular_target": "Gal(b1-3)[Neu5Ac(a2-6)]GalNAc", "in_short": "as §1"}, "[14]": {"molecular_target": "Gal(b1-3)[Neu5Ac(a2-6)]GlcNAc", "in_short": "as §1"}, "[15]": {"molecular_target": "Gal(b1-3)[Neu5Ac(a2-6)]GlcNAc(a1-4)Gal(b1-4)Glc", "in_short": "as §1"}, "[16]": {"molecular_target": "Gal(b1-3)[Neu5Ac(b2-6)]GlcNAc", "in_short": "as §1"}, "[17]": {"molecular_target": "Gal(b1-4)GalNAc(a1-3)[Fuc(a1-2)]Gal(b1-4)GlcNAc", "in_short": "as §1"}, "[18]": {"molecular_target": "Gal(b1-4)GalNAc(b1-3)[Fuc(a1-2)]Gal(b1-4)GlcNAc", "in_short": "as §1"}, "Gal(b1-4)Glc": {"molecular_target": "Gal(b1-4)Glc", "in_short": "as §1"}, "Gal(b1-4)Glc6S": {"molecular_target": "Gal(b1-4)Glc6S", "in_short": "as §1"}, "Gal(b1-4)GlcNAc": {"molecular_target": "Gal(b1-4)GlcNAc", "in_short": "as §1"}, "[19]": {"molecular_target": "Gal(b1-4)GlcNAc(b1-2)Man(a1-3)[Gal(b1-4)GlcNAc(b1-2)Man(a1-6)]Man(b1-4)GlcNAc(b1-4)GlcNAc", "in_short": "as §1"}, "[20]": {"molecular_target": "Gal(b1-4)GlcNAc(b1-3)Gal(b1-3)GlcNAc", "in_short": "as §1"}, "[21]": {"molecular_target": "Gal(b1-4)GlcNAc(b1-3)Gal(b1-4)Glc", "in_short": "as §1"}, "[22]": {"molecular_target": "Gal(b1-4)GlcNAc(b1-3)Gal(b1-4)GlcNAc", "in_short": "as §1"}, "[23]": {"molecular_target": "Gal(b1-4)GlcNAc(b1-3)Gal(b1-4)GlcNAc(b1-3)Gal(b1-4)GlcNAc", "in_short": "as §1"}, "[24]": {"molecular_target": "Gal(b1-4)GlcNAc(b1-3)Gal(b1-4)[Fuc(a1-3)]GlcNAc(b1-3)Gal(b1-4)[Fuc(a1-3)]GlcNAc", "in_short": "as §1"}, "[25]": {"molecular_target": "Gal(b1-4)GlcNAc(b1-3)GalNAc", "in_short": "as §1"}, "[26]": {"molecular_target": "Gal(b1-4)GlcNAc(b1-3)[Gal(b1-4)GlcNAc(b1-6)]GalNAc", "in_short": "as §1"}, "[27]": {"molecular_target": "Gal(b1-4)GlcNAc(b1-6)GalNAc", "in_short": "as §1"}, "[28]": {"molecular_target": "Gal(b1-4)GlcNAc(b1-6)[Gal(b1-3)]GalNAc", "in_short": "as §1"}, "[29]": {"molecular_target": "Gal(b1-4)GlcNAc(b1-6)[Gal(b1-3)]GlcNAc", "in_short": "as §1"}, "Gal3S(b1-3)GalNAc": {"molecular_target": "Gal3S(b1-3)GalNAc", "in_short": "as §1"}, "Gal3S(b1-3)GlcNAc": {"molecular_target": "Gal3S(b1-3)GlcNAc", "in_short": "as §1"}, "[30]": {"molecular_target": "Gal3S(b1-3)[Fuc(a1-4)]GlcNAc", "in_short": "as §1"}}, "note": "The list shows a part of the results.", "data": [{"binder": "B1", "values": [{"measurement": "glycan array binding signal (z-score)", "setting": "Gal(b1-3)GalNAc", "value": -0.213}, {"measurement": "glycan array binding signal (z-score)", "setting": "[1]", "value": -0.391}, {"measurement": "glycan array binding signal (z-score)", "setting": "[2]", "value": -0.312}, {"measurement": "glycan array binding signal (z-score)", "setting": "[3]", "value": -0.308}, {"measurement": "glycan array binding signal (z-score)", "setting": "[4]", "value": -0.315}, {"measurement": "glycan array binding signal (z-score)", "setting": "[5]", "value": -0.412}, {"measurement": "glycan array binding signal (z-score)", "setting": "[6]", "value": -0.469}, {"measurement": "glycan array binding signal (z-score)", "setting": "[7]", "value": -0.348}, {"measurement": "glycan array binding signal (z-score)", "setting": "[8]", "value": -0.393}, {"measurement": "glycan array binding signal (z-score)", "setting": "[9]", "value": -0.333}, {"measurement": "glycan array binding signal (z-score)", "setting": "[10]", "value": -0.367}, {"measurement": "glycan array binding signal (z-score)", "setting": "[11]", "value": -0.25}, {"measurement": "glycan array binding signal (z-score)", "setting": "[12]", "value": -0.285}, {"measurement": "glycan array binding signal (z-score)", "setting": "[13]", "value": -0.409}, {"measurement": "glycan array binding signal (z-score)", "setting": "[14]", "value": -0.33}, {"measurement": "glycan array binding signal (z-score)", "setting": "[15]", "value": -0.338}, {"measurement": "glycan array binding signal (z-score)", "setting": "[16]", "value": -0.261}, {"measurement": "glycan array binding signal (z-score)", "setting": "[17]", "value": -0.402}, {"measurement": "glycan array binding signal (z-score)", "setting": "[18]", "value": -0.381}, {"measurement": "glycan array binding signal (z-score)", "setting": "Gal(b1-4)Glc", "value": -0.038}, {"measurement": "glycan array binding signal (z-score)", "setting": "Gal(b1-4)Glc6S", "value": 0.339}, {"measurement": "glycan array binding signal (z-score)", "setting": "Gal(b1-4)GlcNAc", "value": -0.277}, {"measurement": "glycan array binding signal (z-score)", "setting": "[19]", "value": -0.353}, {"measurement": "glycan array binding signal (z-score)", "setting": "[20]", "value": -0.218}, {"measurement": "glycan array binding signal (z-score)", "setting": "[21]", "value": -0.373}, {"measurement": "glycan array binding signal (z-score)", "setting": "[22]", "value": -0.388}, {"measurement": "glycan array binding signal (z-score)", "setting": "[23]", "value": -0.417}, {"measurement": "glycan array binding signal (z-score)", "setting": "[24]", "value": -0.353}, {"measurement": "glycan array binding signal (z-score)", "setting": "[25]", "value": -0.375}, {"measurement": "glycan array binding signal (z-score)", "setting": "[26]", "value": -0.307}, {"measurement": "glycan array binding signal (z-score)", "setting": "[27]", "value": -0.324}, {"measurement": "glycan array binding signal (z-score)", "setting": "[28]", "value": -0.451}, {"measurement": "glycan array binding signal (z-score)", "setting": "[29]", "value": -0.316}, {"measurement": "glycan array binding signal (z-score)", "setting": "Gal3S(b1-3)GalNAc", "value": -0.22}, {"measurement": "glycan array binding signal (z-score)", "setting": "Gal3S(b1-3)GlcNAc", "value": 0.208}, {"measurement": "glycan array binding signal (z-score)", "setting": "[30]", "value": -0.128}]}]}
